Source: the RNAGym collection of RNA variant scans (doi:10.1073/pnas.2313332121)
Variants at the floor of the assay are shown more often than the library holds them.

B1: TPR 5TU (parent)
chain: GGAUCUUCUCGAUCUAACAAAAAAGACAAAUCUGCCACAAAGCUUGAGAGCAUCUUCGGAUGCAGAGGCGGCAGCCUUCGGUGGCGCGAUAGCGCCAACGUUCUCAACUAUGACACGCAAAACGCGUGCUCCGUUGAAUGGAGUUUAUCAUG

Variants of: B1
Test: polymerase ribozyme fitness, log enrichment relative to wild type (log ratio); higher = more active; in vitro selection for triplet polymerase activity
Summary of the method: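 Input and output libraries were sequenced on Illumina after a single in vitro selection round, run in triplicate on PCR-built, transcribed mutant libraries of each subunit of a heterodimeric triplet polymerase ribozyme. Selection annealed libraries to a biotinylated primer, the partner subunit and triplets, incubated them frozen at −7 °C, then gel-excised extended constructs for streptavidin-bead capture and RT-PCR. Genotypes with ≥10 input reads and ≥1 read per output were kept. Fitness is the logarithm, taken in base 2, of genotype enrichment divided by wild-type enrichment, using inverse-variance-weighted replicate averages.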

| Variant | polymerase ribozyme fitness (log ratio) |
| --- | --- |
| A52G A113G A147C | ≤ -4.2 |
| A52U G62C G88A A107U U134A G143U | ≤ -4.2 |
| A52C C54U G62U A98G A106G A115G | ≤ -4.2 |
| C51U G92C G112U | ≤ -4.2 |
| G50U G94C U111C | ≤ -4.2 |
| G50U A73U G94U U109G A113U | ≤ -4.2 |
| G50C G59U C72G C96U A107G | ≤ -4.2 |
| A52G C57A U77G A120C C129A U144C | ≤ -4.2 |
| A52C C54G C76G C85U G140C | ≤ -4.2 |
| A52C A73G C93U U101A C129A G152C | ≤ -4.2 |
| A52U U55A G94C A142C U144G A147C | ≤ -4.2 |
| G50U C57U C75A U77G C87A A97U | ≤ -4.2 |
| A52C G68U A73G G86U | ≤ -4.2 |
| A52C G88C | ≤ -4.2 |
| C51G G86A G117U C129A | ≤ -4.2 |
| C51U C72G G94U C105A A106C U135C | ≤ -4.2 |
| C51G G67A A73U C87G C93G | ≤ -4.2 |
| G50C G65U C79G G92C C116U | ≤ -4.2 |
| C51G G86A | ≤ -4.2 |
| G50C G65U A66U C72A C118U G143C A147C | ≤ -4.2 |
| A52U C76U C103G G124U G143C A147C | ≤ -4.2 |
| C51A G70C U127G | ≤ -4.2 |
| C51A C95U C108U G141U U151C | ≤ -4.2 |
| C51A G74C C76G C93G C108G A110U | ≤ -4.2 |

| Variant | polymerase ribozyme fitness (log ratio) |
| --- | --- |
| G50U C57U A60G C85U A89U A107C | ≤ -4.2 |
| A52C G58C U82G G86A U134G | ≤ -4.2 |
| A52C U56A A89U C93A G141A U145G | ≤ -4.2 |
| U53A C63A C85U C93G C132U | ≤ -4.2 |
| G50U G59A G70A A73G A107U U146G | ≤ -4.2 |
| C51U C96A C116A A119C A142U | ≤ -4.2 |
| C51G G74C A91U U101A U104G U130A A142U | ≤ -4.2 |
| C51U C75G U90A A91C C93U C114U G143C | ≤ -4.2 |
| G50C U148C | ≤ -4.2 |
| C51G G81A G92A U102G C108U U130G C149U | ≤ -4.2 |
| G50C U53C G67C A137G | ≤ -4.2 |
| G50C G59U G86A A110G | ≤ -4.2 |
| C51A C63A C103G U139G G140U | ≤ -4.2 |
| A52G A66C U90G | ≤ -4.2 |
| C51G A52G G86A A115U C118A G143C | ≤ -4.2 |
| A52G C63U G65A C76A G86A A120U | ≤ -4.2 |
| A52G U77G U82C C87U | ≤ -4.2 |
| C51A U55G C87U G94A G143U | ≤ -4.2 |
| U53A A64G G67A C76U U78C A91C C96A C114U G133C | ≤ -4.2 |
| C51A C96G A113G C116U G141U U148C | ≤ -4.2 |
| C51U U61A C85A G100A | ≤ -4.2 |
| C51U C85A G117U C149G | ≤ -4.2 |
| C51G C79G | ≤ -4.2 |
| C51A U56G G58C C87G G143C | ≤ -4.2 |

| Variant | polymerase ribozyme fitness (log ratio) |
| --- | --- |
| A52G G141A C149U | ≤ -4.2 |
| G50C G74C | ≤ -4.2 |
| C51G C57G C79A G80C A120C | ≤ -4.2 |
| C51G A52U A113U C125G | ≤ -4.2 |
| G50C U53G G92A C125A C132A U146A | ≤ -4.2 |
| G50C C108U | ≤ -4.2 |
| A52U G84U G112A A115G A138U | ≤ -4.2 |
| C51A A91C | ≤ -4.2 |
| C51G U139A | ≤ -4.2 |
| G50U C51G C69A C123U A137G U148A | ≤ -4.2 |
| A52C C85G A110C | ≤ -4.2 |
| A52U G58A A73G C93U C129A | ≤ -4.2 |
| A52G C93A C95A U135G U148C | ≤ -4.2 |
| C51G C76A G84C | ≤ -4.2 |
| C51U G68U G83A G141C | ≤ -4.2 |
| C51A A52C C85U U127C A150U | ≤ -4.2 |
| C51A U61G C79U G83C G94A G100A U102G | ≤ -4.2 |
| C51U A60U G88C C105G | ≤ -4.2 |
| A52G C85G G100C G133U U146A | ≤ -4.2 |
| C51A G65U G70C C93U A107G U145G | ≤ -4.2 |
| G50U A52C U56G C96A C118A G124A U139G | ≤ -4.2 |
| U53A C63U C85A C105G C131G | ≤ -4.2 |
| C51A U53A A89G C96G | ≤ -4.2 |
| A52U G136U | ≤ -4.2 |

| Variant | polymerase ribozyme fitness (log ratio) |
| --- | --- |
| A52G C57G A60G G67A A98U A147C | ≤ -4.2 |
| A52U U56A C93G C96U | ≤ -4.2 |
| G50C C105G U146A | ≤ -4.2 |
| G50C G80C | ≤ -4.2 |
| A52G C75G C85G U90G | ≤ -4.2 |
| A52C U77C C116G U134G | ≤ -4.2 |
| A52G C54G U148G | ≤ -4.2 |
| C51U A91U C99U U135C | ≤ -4.2 |
| A52U U104A A122G G141A | ≤ -4.2 |
| A52G G84A G88A A147U | ≤ -4.2 |
| U53A A73U C118G G140U | ≤ -4.2 |
| U53A A60G G71U C87A A106G | ≤ -4.2 |
| G50C C93G C103A G124A | ≤ -4.2 |
| C51G C76U C96U G143C | ≤ -4.2 |
| A52G A91U U101G | ≤ -4.2 |
| G50C G65A G88U U90G | ≤ -4.2 |
| G50C G83A A121U G143U | ≤ -4.2 |
| C51A G80C U135C | ≤ -4.2 |
| C51G A52C G67A G74A G80U C149G | ≤ -4.2 |
| A52C C69A C72G C85G A113G C116G C118G G140A | ≤ -4.2 |
| C51A A66C G88C A106G C123U U151A | ≤ -4.2 |
| A52U C57A C63U G68A C96G C125G | ≤ -4.2 |
| C51G A52U U53A A120U U151G | ≤ -4.2 |
| C51U C76G C96G A121G A122U C129A C131A | ≤ -4.2 |

| Variant | polymerase ribozyme fitness (log ratio) |
| --- | --- |
| A52G A137U | ≤ -4.2 |
| C51U G70A C87U U104A U148C | ≤ -4.2 |
| G50C U56A G74A C87A G88U C116U | ≤ -4.2 |
| C51U A106G G133U G136U | ≤ -4.2 |
| A52U G86C U104G | ≤ -4.2 |
| G50U G83C A115C A119U G126A G133A C149A | ≤ -4.2 |
| A52U U135G | ≤ -4.2 |
| C51G C87U C95A C99A A107U U146G | ≤ -4.2 |
| A52G U77A C79A | ≤ -4.2 |
| G50C G65U G88C C103A | ≤ -4.2 |
| A52G U53A U61A A91G C96G A97U G124A | ≤ -4.2 |
| C51U C85G A89G A98U | ≤ -4.2 |
| C51A G92A C105U A119U | ≤ -4.2 |
| C51A C93U G124A A138C A142U | ≤ -4.2 |
| A52G G68U U144A | ≤ -4.2 |
| G50C G58C C99G | ≤ -4.2 |
| C51G U56G A73G C87G G112C A115C A119U A120G G141C A150U | ≤ -4.2 |
| C51A G59A A60C G83U C95A | ≤ -4.2 |
| A52U U55A C93G C103G U134A U151A | ≤ -4.2 |
| G50C G68A G80C C93G C96A U104G G140U A142C | ≤ -4.2 |
| U53A A66G G68A C85U A115G A120U A150C | ≤ -4.2 |
| A52G U53A A120C A122G A137U | ≤ -4.2 |
| G50U A107C | ≤ -4.2 |
| C51A G94C A113C G141A | ≤ -4.2 |

| Variant | polymerase ribozyme fitness (log ratio) |
| --- | --- |
| G50U C96G A98G C99G | ≤ -4.2 |
| C51U C93U G100U C123G | ≤ -4.2 |
| A52U U55A C79G C93U A98U U101C A110G | ≤ -4.2 |
| C51U C54U A91G C96U A106U U127G U135A U148A | ≤ -4.2 |
| A52C U56A G68A C96G C99U | ≤ -4.2 |
| C51A C72A C108G C116U C118U | ≤ -4.2 |
| A52U C93A U101G | ≤ -4.2 |
| C51U A52U U78A C85A A89U C105G A121C | ≤ -4.2 |
| A52C C103G | ≤ -4.2 |
| G50C G58A U78G C108A | ≤ -4.2 |
| C51U A52C C54G G80C C87A A115C U135C | ≤ -4.2 |
| A52U G74A G88C C105A | ≤ -4.2 |
| C51U G86A G88U G141U | ≤ -4.2 |
| A52G C75G A107U G133C | ≤ -4.2 |
| G50U C87G C96U A98U A113G | ≤ -4.2 |
| C51U C54U G67C C76A U77C C114G | ≤ -4.2 |
| U53A C57U G84U C149U G152U | ≤ -4.2 |
| G50C U53A C54U G58A A119U G133U G141A | ≤ -4.2 |
| G50C C93U A97C U144G | ≤ -4.2 |
| U53A C63U G65A A66G G86C G117C U145G | ≤ -4.2 |
| G50U C99A U102C | ≤ -4.2 |
| G50C G83A C103G A119U U134G U135A | ≤ -4.2 |
| C51G A60C G88A G92A | ≤ -4.2 |
| A52C U146G A150C | ≤ -4.2 |

| Variant | polymerase ribozyme fitness (log ratio) |
| --- | --- |
| C51U C75G U77C G112U A150G | ≤ -4.2 |
| C51U U55G G58A G86C C95G | ≤ -4.2 |
| A52C U55A G59U C87A A91U | ≤ -4.2 |
| C51A C75U U82G G94U C149U | ≤ -4.2 |
| C51G A73G G81A U82C A150G | ≤ -4.2 |
| G50U C93U U101G A122C G141U U151G | ≤ -4.2 |
| G50U G86A G128A C131A | ≤ -4.2 |
| C51G A52U G84C G124A C125U G126A G141A | ≤ -4.2 |
| A52G A91U C105G | ≤ -4.2 |
| A52U C87U C149G | ≤ -4.2 |
| C51U U53A C85U C99G | ≤ -4.2 |
| G50U C87A C99U U144A | ≤ -4.2 |
| A52C U53A A64G C85A C96U C132U A142G | ≤ -4.2 |
| A52C U77G G81A C85A U111A A150C | ≤ -4.2 |
| U53A C57G C85A A89G | ≤ -4.2 |
| A52G G88C U146G | ≤ -4.2 |
| C51G C76A G84C C87G U104C U148C | ≤ -4.2 |
| C51U G83C A150C | ≤ -4.2 |
| U53A A60G G71C C85G C108U A110G | ≤ -4.2 |
| A52U G67U G80A U135G | ≤ -4.2 |
| A52U G86U A89U | ≤ -4.2 |
| A52C G68C C87G A91U A107G U134G | ≤ -4.2 |
| A52C C54U G83C C85U A137C | ≤ -4.2 |
